Measured values reported in the supplement of paper PMC8728848.
The other results are listed elsewhere or left out.

Key:
Assay in all cases: glycan array binding signal (z-score within array); higher = stronger binding
Conditions in all cases: glycan notation: IUPAC condensed, linker removed
[1] = target: Neu5Ac(a2-3)Gal(b1-3)GlcNAc(b1-4)Gal(b1-4)Glc
In short: (§1)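 Glycan array data came from 3228 arrays in the Consortium for Functional Glycomics database, and only arrays with an available protein sequence were kept. Glycan names were put into IUPAC-condensed notation, and columns mapping to the same glycan were averaged. The binding signal is a within-array Z-score, averaged across arrays of one protein sequence run at different concentrations or buffers and across linkers. A negative Z-score can be read as non-binding.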

[2] = target: Neu5Ac(a2-3)Gal(b1-3)GlcNAc(b1-6)GalNAc
In short: as §1

[3] = target: Neu5Ac(a2-3)Gal(b1-3)GlcNAc6S
In short: as §1

[4] = target: Neu5Ac(a2-3)Gal(b1-3)[Fuc(a1-4)]GlcNAc
In short: as §1

[5] = target: Neu5Ac(a2-3)Gal(b1-3)[Fuc(a1-4)]GlcNAc(b1-3)Gal(b1-3)[Fuc(a1-4)]GlcNAc
In short: as §1

[6] = target: Neu5Ac(a2-3)Gal(b1-3)[Fuc(a1-4)]GlcNAc(b1-3)Gal(b1-4)[Fuc(a1-3)]GlcNAc
In short: as §1

[7] = target: Neu5Ac(a2-3)Gal(b1-3)[GlcNAc(b1-6)]GalNAc
In short: as §1

[8] = target: Neu5Ac(a2-3)Gal(b1-3)[Neu5Ac(a2-6)]GalNAc
In short: as §1

[9] = target: Neu5Ac(a2-3)Gal(b1-3)[Neu5Ac(a2-6)]GlcNAc(b1-3)[Fuc(a1-3)[Gal(b1-4)]GlcNAc(b1-6)]Gal(b1-4)Glc
In short: as §1

[10] = target: Neu5Ac(a2-3)Gal(b1-3)]Neu5Ac(a2-3)Gal(b1-4)]GlcNAc
In short: as §1

Neu5Ac(a2-3)Gal(b1-4)Glc = target: Neu5Ac(a2-3)Gal(b1-4)Glc
In short: as §1

[11] = target: Neu5Ac(a2-3)Gal(b1-4)GlcNAc
In short: as §1

[12] = target: Neu5Ac(a2-3)Gal(b1-4)GlcNAc(b1-2)Man
In short: as §1

[13] = target: Neu5Ac(a2-3)Gal(b1-4)GlcNAc(b1-2)Man(a1-3)[GlcNAc(b1-4)][Neu5Ac(a2-3)Gal(b1-4)GlcNAc(b1-2)Man(a1-6)]Man(b1-4)GlcNAc(b1-4)GlcNAc
In short: as §1

[14] = target: Neu5Ac(a2-3)Gal(b1-4)GlcNAc(b1-2)Man(a1-3)[Neu5Ac(a2-3)Gal(b1-4)GlcNAc(b1-2)Man(a1-6)]Man(b1-4)GlcNAc(b1-4)GlcNAc
In short: as §1

[15] = target: Neu5Ac(a2-3)Gal(b1-4)GlcNAc(b1-2)Man(a1-3)[Neu5Ac(a2-3)Gal(b1-4)GlcNAc(b1-2)Man(a1-6)]Man(b1-4)GlcNAc(b1-4)[Fuc(a1-6)]GlcNAc
In short: as §1

[16] = target: Neu5Ac(a2-3)Gal(b1-4)GlcNAc(b1-2)Man(a1-3)[Neu5Ac(a2-6)Gal(b1-4)GlcNAc(b1-2)Man(a1-6)]Man(b1-4)GlcNAc(b1-4)GlcNAc
In short: as §1

[17] = target: Neu5Ac(a2-3)Gal(b1-4)GlcNAc(b1-2)[Neu5Ac(a2-3)Gal(b1-4)GlcNAc(b1-4)]Man(a1-3)[GlcNAc(b1-4)][Neu5Ac(a2-3)Gal(b1-4)GlcNAc(b1-2)[Neu5Ac(a2-3)Gal(b1-4)GlcNAc(b1-6)]Man(a1-6)]Man(b1-4)GlcNAc(b1-4)GlcNAc
In short: as §1

[18] = target: Neu5Ac(a2-3)Gal(b1-4)GlcNAc(b1-2)[Neu5Ac(a2-3)Gal(b1-4)GlcNAc(b1-4)]Man(a1-3)[GlcNAc(b1-4)][Neu5Ac(a2-3)Gal(b1-4)GlcNAc(b1-4)Man(a1-6)]Man(b1-4)GlcNAc(b1-4)GlcNAc
In short: as §1

[19] = target: Neu5Ac(a2-3)Gal(b1-4)GlcNAc(b1-2)[Neu5Ac(a2-3)Gal(b1-4)GlcNAc(b1-6)]Man(a1-6)[Neu5Ac(a2-3)Gal(b1-4)GlcNAc(b1-2)Man(a1-3)]Man(b1-4)GlcNAc(b1-4)GlcNAc
In short: as §1

[20] = target: Neu5Ac(a2-3)Gal(b1-4)GlcNAc(b1-2)[Neu5Ac(a2-3)Gal(b1-4)GlcNAc(b1-6)]Man(a1-6)[Neu5Ac(a2-3)Gal(b1-4)GlcNAc(b1-2)Man(a1-3)][GlcNAc(b1-4)]Man(b1-4)GlcNAc(b1-4)GlcNAc
In short: as §1

[21] = target: Neu5Ac(a2-3)Gal(b1-4)GlcNAc(b1-3)Gal
In short: as §1

[22] = target: Neu5Ac(a2-3)Gal(b1-4)GlcNAc(b1-3)Gal(b1-3)GlcNAc
In short: as §1

[23] = target: Neu5Ac(a2-3)Gal(b1-4)GlcNAc(b1-3)Gal(b1-4)GlcNAc
In short: as §1

[24] = target: Neu5Ac(a2-3)Gal(b1-4)GlcNAc(b1-3)Gal(b1-4)GlcNAc(b1-2)Man(a1-3)[Neu5Ac(a2-3)Gal(b1-4)GlcNAc(b1-3)Gal(b1-4)GlcNAc(b1-2)Man(a1-6)]Man(b1-4)GlcNAc(b1-4)GlcNAc
In short: as §1

[25] = target: Neu5Ac(a2-3)Gal(b1-4)GlcNAc(b1-3)Gal(b1-4)GlcNAc(b1-3)Gal(b1-4)GlcNAc
In short: as §1

[26] = target: Neu5Ac(a2-3)Gal(b1-4)GlcNAc(b1-3)Gal(b1-4)GlcNAc(b1-3)Gal(b1-4)GlcNAc(b1-2)Man(a1-3)[Neu5Ac(a2-3)Gal(b1-4)GlcNAc(b1-3)Gal(b1-4)GlcNAc(b1-3)Gal(b1-4)GlcNAc(b1-2)Man(a1-6)]GalNAc
In short: as §1

[27] = target: Neu5Ac(a2-3)Gal(b1-4)GlcNAc(b1-3)Gal(b1-4)GlcNAc(b1-3)GalNAc
In short: as §1

[28] = target: Neu5Ac(a2-3)Gal(b1-4)GlcNAc(b1-3)Gal(b1-4)GlcNAc(b1-3)[Neu5Ac(a2-3)Gal(b1-4)GlcNAc(b1-3)Gal(b1-4)GlcNAc(b1-6)]GalNAc
In short: as §1

[29] = target: Neu5Ac(a2-3)Gal(b1-4)GlcNAc(b1-3)Gal(b1-4)GlcNAc(b1-6)[Gal(b1-3)]GalNAc
In short: as §1

[30] = target: Neu5Ac(a2-3)Gal(b1-4)GlcNAc(b1-3)Gal(b1-4)[Fuc(a1-3)]GlcNAc
In short: as §1

[31] = target: Neu5Ac(a2-3)Gal(b1-4)GlcNAc(b1-3)GalNAc
In short: as §1

[32] = target: Neu5Ac(a2-3)Gal(b1-4)GlcNAc(b1-3)[Neu5Ac(a2-3)Gal(b1-4)GlcNAc(b1-6)]GalNAc
In short: as §1

[33] = target: Neu5Ac(a2-3)Gal(b1-4)GlcNAc(b1-6)GalNAc
In short: as §1

[34] = target: Neu5Ac(a2-3)Gal(b1-4)GlcNAc(b1-6)[Gal(b1-3)]GalNAc
In short: as §1

[35] = target: Neu5Ac(a2-3)Gal(b1-4)GlcNAc(b1-6)[Neu5Ac(a2-3)Gal(b1-3)]GalNAc
In short: as §1

[36] = target: Neu5Ac(a2-3)Gal(b1-4)GlcNAc6S
In short: as §1

[37] = target: Neu5Ac(a2-3)Gal(b1-4)[Fuc(a1-3)]GlcNAc
In short: as §1

[38] = target: Neu5Ac(a2-3)Gal(b1-4)[Fuc(a1-3)]GlcNAc(b1-2)Man
In short: as §1

[39] = target: Neu5Ac(a2-3)Gal(b1-4)[Fuc(a1-3)]GlcNAc(b1-3)Gal
In short: as §1

[40] = target: Neu5Ac(a2-3)Gal(b1-4)[Fuc(a1-3)]GlcNAc(b1-3)Gal(b1-4)GlcNAc
In short: as §1

[41] = target: Neu5Ac(a2-3)Gal(b1-4)[Fuc(a1-3)]GlcNAc(b1-3)Gal(b1-4)[Fuc(a1-3)]GlcNAc(b1-3)Gal(b1-4)[Fuc(a1-3)]GlcNAc
In short: as §1

[42] = target: Neu5Ac(a2-3)Gal(b1-4)[Fuc(a1-3)]GlcNAc(b1-3)GalNAc
In short: as §1

[43] = target: Neu5Ac(a2-3)Gal(b1-4)[Fuc(a1-3)]GlcNAc(b1-6)[Gal(b1-3)]GalNAc
In short: as §1

[44] = target: Neu5Ac(a2-3)Gal(b1-4)[Fuc(a1-3)]GlcNAc(b1-6)[Neu5Ac(a2-3)Gal(b1-3)]GalNAc
In short: as §1

B1: SSR1 (Sclerotium rolfsii), A0A0M3KL30 (protein)
chain: TYKITVRVYQTNPDAFFHPVEKTVWKYANGGTWTITDDQHVLTMGGSGTSGTLRFHADNGESFTATFGVHNYKRWCDIVTNLAADETGMVINQQYYSQKNREEARERQLSNYQVKNAKGRNFQIVYTEAEGNDLHANLIIG
[1]
  glycan array binding signal (z-score): -0.543
[2]
  glycan array binding signal (z-score): 0.019
[3]
  glycan array binding signal (z-score): -0.325
[4]
  glycan array binding signal (z-score): -0.341
[5]
  glycan array binding signal (z-score): -0.325
[6]
  glycan array binding signal (z-score): -0.319
[7]
  glycan array binding signal (z-score): 0.858
[8]
  glycan array binding signal (z-score): 0.97
[9]
  glycan array binding signal (z-score): -0.329
[10]
  glycan array binding signal (z-score): -0.342
Neu5Ac(a2-3)Gal(b1-4)Glc
  glycan array binding signal (z-score): -0.327
[11]
  glycan array binding signal (z-score): -0.337
[12]
  glycan array binding signal (z-score): -0.313
[13]
  glycan array binding signal (z-score): -0.342
[14]
  glycan array binding signal (z-score): -0.321
[15]
  glycan array binding signal (z-score): -0.313
[16]
  glycan array binding signal (z-score): -0.342
[17]
  glycan array binding signal (z-score): -0.316
[18]
  glycan array binding signal (z-score): -0.332
[19]
  glycan array binding signal (z-score): -0.523
[20]
  glycan array binding signal (z-score): -0.336
[21]
  glycan array binding signal (z-score): -0.354
[22]
  glycan array binding signal (z-score): -0.325
[23]
  glycan array binding signal (z-score): -0.321
[24]
  glycan array binding signal (z-score): -0.286
[25]
  glycan array binding signal (z-score): -0.342
[26]
  glycan array binding signal (z-score): -0.233
[27]
  glycan array binding signal (z-score): 0.407
[28]
  glycan array binding signal (z-score): -0.322
[29]
  glycan array binding signal (z-score): 1.06
[30]
  glycan array binding signal (z-score): -0.336
[31]
  glycan array binding signal (z-score): -0.312
[32]
  glycan array binding signal (z-score): -0.326
[33]
  glycan array binding signal (z-score): -0.334
[34]
  glycan array binding signal (z-score): 0.773
[35]
  glycan array binding signal (z-score): 1.08
[36]
  glycan array binding signal (z-score): -0.343
[37]
  glycan array binding signal (z-score): -0.34
[38]
  glycan array binding signal (z-score): -0.374
[39]
  glycan array binding signal (z-score): -0.342
[40]
  glycan array binding signal (z-score): -0.324
[41]
  glycan array binding signal (z-score): -0.279
[42]
  glycan array binding signal (z-score): -0.293
[43]
  glycan array binding signal (z-score): 0.075
[44]
  glycan array binding signal (z-score): -0.031
